# In PubChem BioAssay AID887 (National Center for Advancing Translational Sciences (NCATS), 2007):
# The campaign covered roughly 74,000 compounds. About 1,100 (1.5%) were called active. The inconclusive results got no clear call from the source; some entries with a clear call stand among them for comparison. The call rests on the fitted dose curve; in most records, active means well fitted inhibition curve with a large enough effect; inconclusive means small, poorly fitted or top-dose-only effect; inactive means no such curve, though single readings can be large or run the other way. Potencies of inconclusive entries are left out as doubtful fits.
# Molecular target: Polyunsaturated fatty acid lipoxygenase ALOX15 (Homo sapiens) (UniProt P16050)
# Test: qHTS Assay for Inhibitors of 15-hLO (15-human lipoxygenase); further: nearly all actives have a fitted effect of over 55% in size
# Details: purified 15hLO-1, xylenol orange hydroperoxide absorbance; series mostly up to 57.1 µM
# Excerpt: Assay Overview: NIH Molecular Libraries Screening Centers Network [MLSCN] NIH Chemical Genomics Center [NCGC] MLSCN Grant: MH081283-01A1 PI Name: Holman, T.R., University of California, Santa Cruz Human lipoxygenase 15hLO-1 is a member of the closely related lipoxygenase family of enzymes which catalyze the site-specific oxidation of arachidonic acid to various hormone precursor molecules and as such is a candidate for drug development in a variety of disease areas, such as cancer and inflammation. Inhibition of 15hLO-1 activity was screened by utilizing arachidonic acid as a substrate. The extent of hydroperoxide product formation was measured by a secondary chromogenic reaction in which xylenol orange (XO, Sigma-Aldrich, cat. number 39,818-7) reacts with the ferric ions produced from the reaction between the hydroperoxide and ferrous ions. The Fe(III)-XO complex is characterized with red-shifted absorbance at 560 nm. A purified preparation of human 15hLO-1 was supplied by Professor Ted Holman, University of California, Santa Cruz.
# Assay Protocol: Buffer: 25 mM Hepes pH 7.5, 0.01% Triton X-100. Reagents/Controls: Buffer in columns 3 and 4 as negative control (no enzyme). Substrate solution: 50 uM arachidonic acid (Sigma-Aldrich, St. Louis, MO) final concentration dispensed throughout the plate. Enzyme: 40 nM 15hLO-1 final concentration in columns 1, 2, 5-48. Column 1 is neutral (100% activity). Column 2 contained pin-transferred titration of NDGA (nordihidroguaiaretic acid, Sigma-Aldrich, N 5023, top concentration 10 mM in DMSO, then 1:2 dilution in duplicate). (Dilution factor: 23 nL into 4 uL.) Chromogenic detection reagent (divalent iron/xylenol orange, Fe-XO): 200 uM xylenol orange plus 300 uM ferrous ammonium sulfate prepared freshly in 50 mM sulfuric acid. Assay Steps: Three uL of enzyme were dispensed to 1536-well Greiner black clear bottom plates. Compounds and controls (23 nL) were transferred via Kalypsys PinTool. The plates were incubated for 15 min at room temperature, and then 1 uL of substrate solution was added to start the reaction. After room temperature incubation for 6 minutes, 4 uL of Fe-XO solution was added to each well followed by a short spin (1000 rpm, 15 sec) and the plates were then incubated for 30 min. The absorbance at 405 and 573 nm were measured using ViewLux (Perkin-Elmer) High-throughput CCD imager and absorbance protocol settings. The 573-to-405 absorbance ratio was used to compute reaction progress.
# Potency means the concentration at half of the fitted maximal effect; tags describe the fitted curve by direction and shape.
# UniProt P16050, sequence (P16050 whole entry, looked up): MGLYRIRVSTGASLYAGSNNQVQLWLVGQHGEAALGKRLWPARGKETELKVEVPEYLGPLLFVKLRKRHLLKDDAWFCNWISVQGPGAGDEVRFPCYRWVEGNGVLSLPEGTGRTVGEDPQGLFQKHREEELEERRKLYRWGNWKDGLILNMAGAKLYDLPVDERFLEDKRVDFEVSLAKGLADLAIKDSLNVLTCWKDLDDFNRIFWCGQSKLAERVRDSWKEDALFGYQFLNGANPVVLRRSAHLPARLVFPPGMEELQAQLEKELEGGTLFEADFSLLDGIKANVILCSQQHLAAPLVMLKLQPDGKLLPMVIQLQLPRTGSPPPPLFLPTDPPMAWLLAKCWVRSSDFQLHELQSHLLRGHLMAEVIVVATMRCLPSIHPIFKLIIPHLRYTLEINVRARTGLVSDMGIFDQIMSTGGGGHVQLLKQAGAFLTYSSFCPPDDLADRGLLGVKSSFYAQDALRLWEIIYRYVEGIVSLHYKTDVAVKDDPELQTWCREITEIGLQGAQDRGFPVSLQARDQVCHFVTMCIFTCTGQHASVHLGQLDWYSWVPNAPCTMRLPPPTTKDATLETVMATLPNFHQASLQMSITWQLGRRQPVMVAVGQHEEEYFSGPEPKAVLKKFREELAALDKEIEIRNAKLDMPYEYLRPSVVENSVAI
row,SMILES,Potency
1,CC(C)Sc1oc(-c2ccco2)nc1S(=O)(=O)c1ccc(F)cc1,active: 25.1 µM
2,Cc1ccc2cc(CN(Cc3ccco3)C(=O)NCc3ccccc3)c(=O)[nH]c2c1C,inactive
3,COc1ccc2cnn(Cc3ccccc3)c(=O)c2c1OC,inactive
4,Nc1ccn(-c2ccc(Cl)cc2)c(=O)c1,"inconclusive [inhibitor, single point]"
5,Cc1ccc(C)c(N2CCN(C(=O)CCCCn3c(=O)[nH]c4ccccc4c3=O)CC2)c1,"inconclusive [inhibitor, single point]"
6,CCOC(=O)N1CCC(NC(=O)C(CC(C)C)NC(=O)C2CCCCC2)CC1 (configuration not stated),active: 15.8 µM
7,CNc1nc(-c2ccc(N(C)C)cc2)nc2ccccc12,"inconclusive [inhibitor, single point]"
8,CSc1nc(N2CCN(CCO)CC2)c2sc3nc(-c4ccco4)c4c(c3c2n1)CCC4,"inconclusive [inhibitor, single point]"
9,ON=Cc1cccn1-c1ccccc1,inactive
10,NC(CSC12CC3CC(CC(C3)C1)C2)C(=O)O (configuration not stated),"inconclusive [inhibitor, single point]"
11,COC(=O)CC1C(C)(C)C(=O)C2CC3C4=CC(=O)OC(c5ccoc5)[C@]4(C)CCC3[C@@]1(C)C2=O (some centres not stated),inactive
12,COc1ccccc1-c1cncnc1NCc1cccnc1,"inconclusive [inhibitor, single point]"
13,CCc1nnc(NC(=O)CSc2nnc(CSc3nc(C)cc(C)n3)n2C)s1,"inconclusive [inhibitor, partial curve]"
14,N#Cc1cc2c(nc1SCc1cccnc1)CCCC2,active: 15.8 µM
15,c1ccc(-n2cnc3cc(NCc4ccncc4)ccc32)cc1,inactive
16,CCN(CC)CCCN1C(=O)C(O)=C(C(=O)c2ccco2)C1c1ccc(C)o1 (configuration not stated),inactive
17,Cc1ccc(C(=O)Cn2c(NCCO)nc3ccccc32)cc1,inactive
18,COc1ccc(CNC(=O)c2nnn(Cc3ccc(OC)cc3)c2N)cc1,"inconclusive [inhibitor, single point]"
19,CN(C)c1ccc(C(=N)c2ccc(N(C)C)cc2)cc1,"inconclusive [inhibitor, single point]"
20,COC(=O)[C@H](Cc1ccccc1)NC(=O)[C@H]1C[C@@H]1[C@H](NC(=O)OCc1ccccc1)c1ccccc1,inactive
21,COc1ccc(N2CCN(C(=O)CSc3nnc(C)c(=O)[nH]3)CC2)cc1,inactive
22,Cc1onc(-c2ccccc2Cl)c1C(=O)NCc1ccco1,"inconclusive [inhibitor, single point]"
